Here are results for 45 molecules from paper PMC4336329 (PLoS ONE, 2015).

The whole screen tested about 310,000 compounds, of which about 2,200 (0.71%) showed an effect of 50% or more. The effect is printed as a negative number. This is one part of the list.

In this assay the target is human ether-à-go-go-related gene (hERG) potassium channel (human, UniProt Q12809). Briefly: primary screen, population patch clamp on CHO cells stably expressing hERG.
Chain of human ether-à-go-go-related gene (hERG) potassium channel (Q12809 whole entry, looked up): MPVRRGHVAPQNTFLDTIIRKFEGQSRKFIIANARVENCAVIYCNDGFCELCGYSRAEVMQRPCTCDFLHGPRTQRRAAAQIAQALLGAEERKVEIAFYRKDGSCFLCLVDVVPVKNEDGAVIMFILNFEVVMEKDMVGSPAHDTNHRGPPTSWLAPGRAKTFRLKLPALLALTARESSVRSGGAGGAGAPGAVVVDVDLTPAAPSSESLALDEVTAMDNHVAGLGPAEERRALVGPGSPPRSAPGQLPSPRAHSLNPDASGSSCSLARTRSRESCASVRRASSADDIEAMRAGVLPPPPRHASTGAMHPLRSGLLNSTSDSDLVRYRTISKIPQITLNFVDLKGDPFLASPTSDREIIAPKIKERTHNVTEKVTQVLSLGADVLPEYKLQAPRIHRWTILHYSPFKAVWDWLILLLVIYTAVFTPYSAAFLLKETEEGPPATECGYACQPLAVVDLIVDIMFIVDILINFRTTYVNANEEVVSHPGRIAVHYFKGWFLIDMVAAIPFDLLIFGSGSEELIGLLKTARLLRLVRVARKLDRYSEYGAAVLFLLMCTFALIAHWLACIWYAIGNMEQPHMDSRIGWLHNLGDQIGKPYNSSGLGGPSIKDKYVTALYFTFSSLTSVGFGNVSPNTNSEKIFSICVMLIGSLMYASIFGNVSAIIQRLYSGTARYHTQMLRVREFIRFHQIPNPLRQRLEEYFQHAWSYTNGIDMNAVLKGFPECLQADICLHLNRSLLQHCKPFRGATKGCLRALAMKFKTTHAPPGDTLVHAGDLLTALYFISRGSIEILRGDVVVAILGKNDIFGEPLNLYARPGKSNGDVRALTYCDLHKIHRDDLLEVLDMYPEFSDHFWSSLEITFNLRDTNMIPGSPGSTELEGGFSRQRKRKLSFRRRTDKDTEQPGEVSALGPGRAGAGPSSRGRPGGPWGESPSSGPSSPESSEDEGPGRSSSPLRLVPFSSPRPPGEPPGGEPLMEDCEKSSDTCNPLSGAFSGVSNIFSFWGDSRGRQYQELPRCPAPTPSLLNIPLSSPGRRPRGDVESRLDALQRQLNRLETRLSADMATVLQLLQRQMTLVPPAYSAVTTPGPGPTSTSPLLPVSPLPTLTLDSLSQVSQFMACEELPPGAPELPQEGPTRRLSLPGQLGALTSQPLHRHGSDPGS
Regarding `Clc1cnc(N/N=C/c2cccs2)c(Cl)c1`, the “hERG current change (%, negative = inhibition) at 1uM” value is 6.06%.

For `COc1ccccc1CCC(=O)NCCCn1ccc2ccccc21`, the “hERG current change (%, negative = inhibition) at 1uM” value is given as 12.8%.

As to `O=C1C2CC=CCC2C(=O)N1Cc1nnc(-c2ccc(Cl)cc2)o1` (stereo not drawn), the “hERG current change (%, negative = inhibition) at 1uM” value amounted to 9.12%.

For the molecule `COc1cccc(-c2nc(CS(=O)CC(=O)NC(C)CCc3ccccc3)c(C)o2)c1` (stereo not drawn), the “hERG current change (%, negative = inhibition) at 1uM” value is reported as 10.4%.

For `O=C(CCc1ccccc1)Nc1ccncc1`, the “hERG current change (%, negative = inhibition) at 1uM” value is on record as -24.3%.

Regarding `Cc1cc(=O)[nH]c(N)n1`, the “hERG current change (%, negative = inhibition) at 1uM” value turned out to be 11.5%.

Take `O=C(NCc1ccccc1)c1c[nH]c2ccc(S(=O)(=O)Nc3ccc4c(c3)OCCO4)cc2c1=O`: the “hERG current change (%, negative = inhibition) at 1uM” value is 7.44%.

As for `CC(=O)c1c(C)n(-c2ccc(N(C)C)cc2)c2ccc(OCC(N)=O)cc12`, the “hERG current change (%, negative = inhibition) at 1uM” value is recorded as 8.67%.

On to `Cc1[nH]n(-c2ccc([N+](=O)[O-])cc2)c(=O)c1C=NCCc1ccc(S(N)(=O)=O)cc1`, for which the “hERG current change (%, negative = inhibition) at 1uM” value was determined as 13.6%.

Regarding `Cc1ccc(/C=N/NC(=S)NC(C)C)o1`, the “hERG current change (%, negative = inhibition) at 1uM” value is 9.48%.

As to `Nc1nc(COc2ccccc2C=O)nc(Nc2ccccc2)n1`, the “hERG current change (%, negative = inhibition) at 1uM” value worked out at 4.51%.

Regarding `O=C(NC(=O)N1CCN(c2cccc(Cl)c2)CC1)c1ccccc1`, the “hERG current change (%, negative = inhibition) at 1uM” value was determined as 9.64%.

As to `CCC1(c2ccccc2)NC(=O)N(CC(=O)Nc2ccc(N3CCCC3)cc2C)C1=O` (stereo not drawn), the “hERG current change (%, negative = inhibition) at 1uM” value is listed as 2.78%.

`OC(COc1cc(Cl)c(Cl)cc1Cl)CN1CCN(c2ncccn2)CC1` (stereo not drawn): the “hERG current change (%, negative = inhibition) at 1uM” value is 2.33%.

For `CCOC(=O)c1c(-c2ccccc2Cl)csc1NC(=O)CSc1nc(C)cc(=O)[nH]1`, the “hERG current change (%, negative = inhibition) at 1uM” value is listed as 2.68%.

With `CN=C1S/C(=C\c2ccc(O)c(OC)c2)C(=O)N1C`, the “hERG current change (%, negative = inhibition) at 1uM” value came to 14%.

As for `O=c1[nH]nc(-c2ccc(F)cc2)cc1Cc1cccs1`, the “hERG current change (%, negative = inhibition) at 1uM” value is recorded as 5.41%.

For `O=C(N=C1SC2CS(=O)(=O)CC2N1CCc1ccccc1)C1CCCCC1` (stereo not drawn), the “hERG current change (%, negative = inhibition) at 1uM” value is given as 2.75%.

In the case of `CS(=O)(=O)Nc1ccc(Oc2ncccn2)cc1`, the “hERG current change (%, negative = inhibition) at 1uM” value is recorded as 12.9%.

For the molecule `CC(C)NC(=O)COc1coc(CN2CCN(c3cccc(Cl)c3)CC2)cc1=O`, the “hERG current change (%, negative = inhibition) at 1uM” value came out at 9.34%.

With `Cc1ccc(S(=O)(=O)N(C)c2ccccc2C(=O)Nc2ccc3c(c2)OCCO3)cc1`, the “hERG current change (%, negative = inhibition) at 1uM” value turned out to be 10.8%.

Take `CCOC(=O)N1CCN(C(=O)C2CCN(C(=O)c3ccc(C(C)(C)C)cc3)CC2)CC1`: the “hERG current change (%, negative = inhibition) at 1uM” value came out at 4.36%.

For `CCOc1ccc(Nc2ncnc3c2cnn3Cc2ccccc2)cc1`, the “hERG current change (%, negative = inhibition) at 1uM” value is listed as 8.72%.

For the molecule `N#Cc1cc([N+](=O)[O-])ccc1NC(=O)COC(=O)C12CC3CC(CC(C3)C1)C2`, the “hERG current change (%, negative = inhibition) at 1uM” value is 5.17%.

For `Br.C1=C(c2cccc3ccccc23)N2CCN=C2S1`, the “hERG current change (%, negative = inhibition) at 1uM” value is -2.67%.

On to `CCc1nc(OCC(=O)c2ccccc2)c(C#N)c2c1COC(C)(C)C2`, for which the “hERG current change (%, negative = inhibition) at 1uM” value was found to be 11.1%.

For `O=C1C=C(c2cc(F)ccc2F)C[C@@H](c2ccc(F)cc2)C1`, the “hERG current change (%, negative = inhibition) at 1uM” value was found to be 0.529%.

Consider `COc1ccccc1N1CCN(CC(O)COc2cccc3ccccc23)CC1.Cl` (stereo not drawn), for which the “hERG current change (%, negative = inhibition) at 1uM” value is reported as -11.3%.

Consider `Cc1ccc(NC(=O)CNC(=O)C2CCCCC2)nc1`, for which the “hERG current change (%, negative = inhibition) at 1uM” value worked out at 9.95%.

Turning to `COc1ccc(-n2c(=O)c3ccccc3n(Cc3ccccc3F)c2=O)cc1OC`, the “hERG current change (%, negative = inhibition) at 1uM” value amounted to 7.12%.

On to `O=C(NC(=S)NCC1CCCO1)C(c1ccccc1)c1ccccc1` (stereo not drawn), for which the “hERG current change (%, negative = inhibition) at 1uM” value is listed as 7.08%.

Take `CCOC(=O)/C(C#N)=C/c1cc(C)n(-c2ccccc2)c1C`: the “hERG current change (%, negative = inhibition) at 1uM” value is listed as 19.1%.

For `CN(CC(=O)Nc1ccc(S(=O)(=O)N2CCCC2)cc1)CC(=O)Nc1cccc(F)c1`, the “hERG current change (%, negative = inhibition) at 1uM” value is -0.496%.

Regarding `COc1ccccc1NS(=O)(=O)/C=C/c1ccccc1`, the “hERG current change (%, negative = inhibition) at 1uM” value was determined as 4.41%.

With `O=C(NCCCNC(=O)c1ccc(F)cc1)c1ccc(F)cc1`, the “hERG current change (%, negative = inhibition) at 1uM” value came out at 17.3%.

Turning to `COc1cccc(NC(=O)N2CCCC(C(=O)NCc3ccc(F)cc3)C2)c1` (stereo not drawn), the “hERG current change (%, negative = inhibition) at 1uM” value stood at 4.35%.

`N#Cc1nc(COc2ccc(Cl)cc2)oc1N1CCCC1`: the “hERG current change (%, negative = inhibition) at 1uM” value is -2.53%.

Consider `CCOC(=O)C1CCCN(CC(O)COc2cccc(C)c2)C1.Cl` (stereo not drawn), for which the “hERG current change (%, negative = inhibition) at 1uM” value is listed as 5.64%.

Consider `NC(=O)c1cccc2c1-c1ccccc1/C2=N/NC(N)=S`, for which the “hERG current change (%, negative = inhibition) at 1uM” value turned out to be 13%.

For `Cc1ccccc1NC(=O)c1csc2c1CCCC2`, the “hERG current change (%, negative = inhibition) at 1uM” value is listed as -1.22%.

As to `NS(=O)(=O)c1ccc(NC(=S)NCc2ccc(Cl)cc2)cc1`, the “hERG current change (%, negative = inhibition) at 1uM” value is 13.1%.

On to `CC(Oc1ccc(C(=O)NCCc2ccccc2)cc1)C(=O)O` (stereo not drawn), for which the “hERG current change (%, negative = inhibition) at 1uM” value came out at 0.477%.

`CN1C(=O)/C(=C/C=C2/CCCN2C)N(C)C1=S`: the “hERG current change (%, negative = inhibition) at 1uM” value was 10.7%.

As to `COc1ccc(CC(=O)O/N=C(\N)c2ccc(Br)cc2)cc1OC`, the “hERG current change (%, negative = inhibition) at 1uM” value worked out at 12.3%.

Regarding `CSc1ccc(-c2nc(CSCC(=O)NC3CC3)c(C)o2)cc1`, the “hERG current change (%, negative = inhibition) at 1uM” value came to 5.23%.
